Assay results published in the supplement of paper PMC11417369.
This is one part of the list.

Tested on: PfAP2-HC AP2 domain (GST-tagged)
Assay: gcPBM binding intensity (ln(normalized median fluorescence intensity)); higher = stronger DNA binding
Summary of the method: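 DNA-binding domains from P. falciparum, fused to GST and produced in E. coli, were put on an Agilent 4 × 180k double-stranded probe array for 1 h in 1× PBS holding 1% milk, 0.2 mg/ml BSA, 0.5% salmon testes DNA and 0.03% Triton X-100. Probes were primer-extended, 36 bp long and drawn from intergenic genomic regions, with negative controls included. After Alexa488 anti-GST antibody detection and a 488 nm scan, binding intensity was set as the highest Masliner-normalised natural-log median intensity across replicate spots of either probe orientation.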

Sequence	gcPBM binding intensity (ln)
TTTCTAATTTATATCACACACATATAAATATAGTAA [CACACA_site6210]	9.64
ATATATAGGTTCCCTTTTCTTTTTTTTTTTTTTTTT [CACACA_negctrl_site1159]	9.39
ATCATTCAAAAATGCTGTACTAGGGGAAAACGTGTT [XGTACX_site7168]	9.67
ATGTATGAAAAAATGTGTACATAATTTTTTTTTTTT [XGTACX_site5444]	9.72
ATATATATATATATATGTACATATTTTATAACTGTA [XGTACX_site5395]	10.1
ATTTATACATATAAACGTACATACATATATAATATT [XGTACX_site2969]	9.78
AACATAAAACGTAATATATTACAAATATAAACAATC [CACACA_negctrl_site1675]	10
TTACCATTTGAAAATTCACACACTTTATTTTGTTAT [CACACA_site3799]	10.1
TTTATATTAATTGATGTGCACTGAAATATTTGTCCA [GTGCAC_site9655]	9.59
ACCCTATAGGTAACTACACACCGCATATTGTTTACT [CACACA_site7436]	9.88
TTAACTATGAATACATGTACATGAAAATATTTCAAT [XGTACX_site1069]	9.67
GGCAAATTTATTATACCCACATACATACATACATAC [XGTACX_negctrl_site186]	9.69
AAATTAATAAAAAATGGTACACAAAATGGATGTATA [XGTACX_site1561]	9.78
AAAATTAAACAAAGTTGTACAAAATAATAATAAAAG [XGTACX_site7515]	10.2
TATGTATATTATATGACACACATTTATATATATATA [CACACA_site1167]	9.72
AATAAATAAATAAATATATATATATATATATATATG [CACACA_negctrl_site899]	9.71
TTTTGTTGATTTATATCTGTAGGGTTTAATATAACA [XGTACX_negctrl_site174]	9.51
AAAAAGGATAAACACACACACACACCGATATATATA [CACACA_site8206]	11
TTATTTTTGTGTAAGGTGCTATATATAATGTTTTTA	9.87

Sequence	gcPBM binding intensity (ln)
AAATGTGATATAAGTACACACACATATGTATATATA [CACACA_site8539]	10.1
AACGAAATCATCAAGTGTACTAGTTTATTATTAATA [XGTACX_site6161]	9.63
CCATGTCACAATTTTTCACACACAAAATTTATATAC [CACACA_site8628]	10.4
TAATTAACAAACTATAGTACACAAAATACTTCATAT [XGTACX_site6375]	9.7
ATATACACACATAAGTGTACTTATATTTCATATATA [XGTACX_site8646]	9.82
AAAATAAAATAAAACACAAAAAAATAAAACAAAATA [CACACA_negctrl_site16]	9.78
TATATATCCATGTGTACACACAAAAAAAAATAAAGT [CACACA_site7107]	10.2
AAATATGTTTATATATGTACTTATAATTCAAAATAT [XGTACX_site2167]	9.52
TCTATGCGTTTTAATAGTACATATAAAATTTATACA [XGTACX_site6986]	9.47
AAATAAAATATATACATATATATATTATTTAGTAAT [XGTACX_negctrl_site375]	9.55
AAAAAAAAAAAACACACACACACACTAGTATATAAA [CACACA_site4783]	10.6
AAGAAAAAAAAAAATATATATACATATATATATATA [TGCATGCA_negctrl_site485]	9.62
GGATATAACAAACACACACACACATATATATATATT [CACACA_site4141]	11.2
AATACATATAATACAACACACAAGTAATATAAACCT [CACACA_site3597]	10.2
TTTAAATGAAAAAAAGGTACACAATATTATTCTTAT [XGTACX_site8612]	9.53
AATAAATAAATACATCTCAGTATATAAACAAACAAA [CACACA_negctrl_site1604]	9.81
ATATTTAATTAAAAGAGTACTTAAATAAAATAAATG [XGTACX_site2149]	9.5
AAGCCTTAAAAGGAAAGTACGTATATATATATATAT [XGTACX_site8559]	9.64
ATGAAACATGTATATTGTACTCTGGATCAATTTAAT [XGTACX_site6413]	9.72

Sequence	gcPBM binding intensity (ln)
AAATTTATTATATATACATGCAATCATAAATAATGT [TGCATGCA_site539]	9.53
AATGTATATATATATATATATATATATATTTATTTA [CACACA_negctrl_site113]	9.52
AAGAAAATAGAAAATACACACAGCAAACAGAGGAAT [CACACA_site3785]	10.3
ATATATATATATTTATGTACATATATTTTTTTTTTT [XGTACX_site8558]	9.66
TGTAGTCTGGAGAAAAGTACACAGTATCCGGTAACT [XGTACX_site4934]	9.57
AATAATAAATCAAACTGTACATATATTTTCAATCTA [XGTACX_site3344]	9.61
TTTTTTTTTTTGTTCACACATATATATATATATATA [CACACA_site5376]	9.75
TTATAAATAAAAAATACACACATATATTTATTTATA [CACACA_site6242]	9.63
ATAATATATGAAAGTGGTACACAAAGGAAAATAAAA [XGTACX_site333]	9.98
GGTTATATATTTTTTGCACACCAAAAAAGAGAATAT [CACACA_site2731]	9.76
ATCCTAATATTGAACTGTACCTTATATGTTATTATA [XGTACX_site1014]	9.81
ACGTGTATTTATTTAGTGCACTTTATATTTTTTCTT [GTGCAC_site9426]	10
TATATATATATATATACACACATATATACATATATA [CACACA_site4043]	9.61
TTCTTCTAATCCTTTTATCTCATTAAAAAAATATAA [CACACA_negctrl_site12]	9.27
TATACATACACATACACACATACACCCATACACATA [CACACA_site1746]	10.6
GAATGAATACGTTTTACACACTTGAATCTAATTTCA [CACACA_site6593]	9.72
ATTCTACTTTTATTTATTTATTTGTTTATATATATA [XGTACX_negctrl_site609]	9.99
TTTTTTATTCATGTAACACACATTTAATTATGAATT [CACACA_site2706]	9.8
